Test results as given in PubChem BioAssay AID588579 (National Center for Advancing Translational Sciences (NCATS), 2011).
Screen size: about 400,000 compounds; about 2,200 (0.55%) were called active. Inconclusive means that the source gave no clear call. Such entries were picked first, then a sample of the others. Calls come from the whole dose curve; as a rule, active = well fitted inhibition curve with a large enough effect; inconclusive = small, poorly fitted or top-dose-only effect, or another doubt; inactive = no such curve, though single readings can be large or run the other way. Potencies of inconclusive entries are doubtful fits and often do not repeat.

The compounds below were run against DNA polymerase kappa (Homo sapiens) (UniProt Q9UBT6) (assay: qHTS for Inhibitors of Polymerase Kappa). Settings: purified Pol kappa, fluorescent DNA synthesis assay, 10 min; series mostly up to 107 µM.
Method in brief: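 Kinetic fluorescence screen: compound preincubated 15 min RT with 10 nM enzyme; 50 nM substrate (final) initiates; reads at 0/10 min.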
% is set by controls: 0 for no effect and ±100 for the full control effect; potency is the fitted concentration of half-maximal effect; tags give direction and shape of the fitted curve.

Chain of UniProt Q9UBT6 (Q9UBT6 whole entry, looked up): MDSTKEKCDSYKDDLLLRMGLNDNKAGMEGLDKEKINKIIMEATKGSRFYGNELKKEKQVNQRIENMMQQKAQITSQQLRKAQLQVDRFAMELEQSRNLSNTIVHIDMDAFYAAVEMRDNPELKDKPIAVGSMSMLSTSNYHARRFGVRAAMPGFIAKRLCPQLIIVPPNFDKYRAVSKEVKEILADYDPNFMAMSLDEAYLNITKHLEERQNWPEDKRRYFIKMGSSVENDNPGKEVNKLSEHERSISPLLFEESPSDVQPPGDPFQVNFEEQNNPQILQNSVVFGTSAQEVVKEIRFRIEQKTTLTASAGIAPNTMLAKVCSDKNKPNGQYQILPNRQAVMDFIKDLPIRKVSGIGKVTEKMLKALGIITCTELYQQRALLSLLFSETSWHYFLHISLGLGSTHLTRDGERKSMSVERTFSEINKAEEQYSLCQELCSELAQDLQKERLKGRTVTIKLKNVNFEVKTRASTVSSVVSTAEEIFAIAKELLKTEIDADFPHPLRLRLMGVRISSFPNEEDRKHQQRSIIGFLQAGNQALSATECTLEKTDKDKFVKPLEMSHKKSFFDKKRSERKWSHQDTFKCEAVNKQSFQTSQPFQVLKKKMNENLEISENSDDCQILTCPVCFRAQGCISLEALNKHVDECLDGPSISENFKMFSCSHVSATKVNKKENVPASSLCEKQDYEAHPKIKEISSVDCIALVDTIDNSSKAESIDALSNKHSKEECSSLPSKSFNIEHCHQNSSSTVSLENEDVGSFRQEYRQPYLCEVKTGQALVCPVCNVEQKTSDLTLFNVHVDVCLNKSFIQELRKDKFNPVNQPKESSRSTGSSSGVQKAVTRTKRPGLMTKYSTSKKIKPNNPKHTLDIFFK

Potency, active:
O=C1c2cc(O)cc(O)c2OC[C@@H]1c1ccc(O)c(O)c1 15 µM
O=C(N/N=C/C=C/c1ccco1)c1ccncc1 79.4 µM
C=C(C)C(=O)Nc1cccc(C2=NOC3(C2)C[C@H](C(N)=O)N(C(=O)COc2ccc(Cl)cc2)C3)c1 (stereo partly drawn) 17.8 µM
CN(Cc1ccccc1)C(=O)C1CCN(S(=O)(=O)c2ccc3nc4c(c(C(=O)O)c3c2)CCCC4)CC1 79.4 µM
COc1ccc(C2C(C#N)=C(N)Oc3cc(C)n(Cc4ccco4)c(=O)c32)cc1 (stereo not drawn) 31.6 µM
S=c1[nH]nc(-c2cc(-c3ccccc3)n[nH]2)n1/N=C/C=C/c1ccco1 50.1 µM
Cc1n[nH]c(=S)n(NC(=O)/C=C/C(=O)Nn2c(=S)[nH]nc(C)c2=O)c1=O 8.91 µM
Nc1ccc2cc3[nH]c4cc(N)ccc4c3nc2c1 15.8 µM
CC[n+]1c(/C=C/c2c[nH]c3ccccc23)ccc2cc(C)ccc21 79.4 µM
CCCOc1ccc(Cc2nn3c(=O)/c(=C/c4ccco4)sc3nc2=O)cc1 8.91 µM
Cc1c(C(=O)OCC2CCCO2)[nH]c2c1C(=O)CC(c1ccco1)C2 (stereo not drawn) 28.2 µM
Cc1ccc(N2C(=O)/C(=C\c3ccco3)SC2=S)cc1 79.4 µM

Potency, inconclusive:
Cc1ccc(S(=O)(=O)N/N=C\c2ccc(C)o2)cc1 100 µM [inhibitor, single point]
O=C(Nc1cccc(C(F)(F)F)c1)N1CC2CCCN2c2ccccc21 (stereo not drawn) 89.1 µM [inhibitor, partial curve, poor fit]
Cc1cccc(NC(=O)CN2C(=O)N/C(=C\c3ccccc3OCc3ccc(C(=O)O)cc3)C2=O)c1 89.1 µM [inhibitor, single point]
C=CCNC(=O)c1oc2ccc(S(=O)(=O)N(CC)CC)cc2c1C 89.1 µM [inhibitor, single point]
COc1ccc2nc(NC(=O)c3ccccc3[N+](=O)[O-])sc2c1 89.1 µM [inhibitor, single point]
O=C(Nc1ccc(S(=O)(=O)Nc2nccs2)cc1)c1cccc(N2C(=O)c3ccccc3C2=O)c1 89.1 µM [inhibitor, partial curve, poor fit]
C/C(=N\Nc1ccc(Cl)c(C(=O)O)c1)c1ccc2c(c1)OCO2 100 µM [inhibitor, single point]
CNS(=O)(=O)c1ccc2nc(NC(=O)/C=C/c3ccco3)sc2c1 89.1 µM [inhibitor, single point]
O=C(OCc1nnc(-c2ccccc2)o1)c1ccc(S(=O)(=O)NCc2ccco2)cc1 56.2 µM [inhibitor, partial curve, poor fit]
CO/N=C1\CN(c2nc3c(cc2F)c(=O)c(C(=O)O)cn3C2CC2)CC1CN (stereo not drawn) 35.5 µM [inhibitor, partial curve, poor fit]
NS(=O)(=O)c1ccc(-c2ccc(/C=N/Nc3ccc(C(=O)O)cc3)o2)cc1 100 µM [inhibitor, single point]
Cc1ccc(N2NC(=O)/C(=C/c3ccc(-c4ccc(Cl)c(C(=O)O)c4)o3)C2=O)cc1 89.1 µM [inhibitor, single point]
CC(C)CCNC(=O)C1CCN(C(=O)N2CCOc3ccc(Cl)cc32)CC1 89.1 µM [inhibitor, single point]
CCc1ccc(C(=O)Nc2ccc(S(=O)(=O)Nc3nc(C)cc(C)n3)cc2)o1 89.1 µM [inhibitor, partial curve, poor fit]
CCn1c(SCC(=O)Nc2sc3c(c2C(N)=O)CCC(C)C3)nnc1-c1ccco1 (stereo not drawn) 100 µM [inhibitor, single point]
CC(=C\C(=O)O)/C(=C/c1ccc(C)o1)C(=O)O 56.2 µM [inhibitor, partial curve, poor fit]
CN1C(=O)/C(=C/c2ccc(-c3ccccc3[N+](=O)[O-])o2)SC1=Nc1ccc(Cl)c(C(=O)O)c1 89.1 µM [inhibitor, single point]
CC(=O)c1ccc(S(=O)(=O)Nc2ccc(C(=O)N(C)CC(=O)Nc3cccc(C)c3C)cc2)cc1 89.1 µM [inhibitor, partial curve, poor fit]
Cc1ccc(CNc2ccc(O)cc2)cc1 89.1 µM [inhibitor, single point]
COc1ccc(Cl)cc1NC(=O)CCN1C(=O)c2ccccc2Sc2ncccc21 89.1 µM [inhibitor, single point]
CCCCCCCCCC[n+]1ccc(/C=C/c2c(C)[nH]c3ccccc23)c2ccccc21 100 µM [inhibitor, single point]
O=c1cc[nH]c2c1ccc1c(=O)cc[nH]c12 89.1 µM [inhibitor, partial curve, poor fit]
CCCCNS(=O)(=O)c1cc(-c2nn(C)c(=O)c3ccccc23)ccc1C 100 µM [inhibitor, single point]
CCn1c(SCC(=O)NC2CCCCC2)nnc1-c1ccco1 89.1 µM [inhibitor, partial curve, poor fit]
CN(C)c1cc2c(cc1NC(=O)c1ccc(F)cc1)n(C)c(=O)n2C 79.4 µM [inhibitor, partial curve, poor fit]
Cc1c(CC(=O)O)c(=O)oc2c(C)c(OCc3ccccc3Br)ccc12 100 µM [inhibitor, single point]
Cc1ccc(-n2c(C)nc3oc4ccccc4c(=O)c3c2=O)cc1 79.4 µM [inhibitor, partial curve, poor fit]
COc1ccc(CNC(=O)CSc2ccsc2[N+](=O)[O-])cc1 79.4 µM [inhibitor, partial curve, poor fit]
COc1ccc(-c2cc(-c3ccccc3)nc(N)n2)c(O)c1 89.1 µM [inhibitor, single point]
O=c1c(CCc2ccccc2)nc2cnc(N3CCOCC3)nc2n1Cc1ccc(F)cc1 20 µM [inhibitor, partial curve, poor fit]
O=C1CC(C(=O)Nc2cccc3ccccc23)C2(CCCC2)O1 (stereo not drawn) 89.1 µM [inhibitor, single point]
Cc1ccc(NC(=S)Nc2ccccn2)cc1C 89.1 µM [inhibitor, single point]
O=C1C=C(O)CC(c2ccco2)C1 (stereo not drawn) 28.2 µM [inhibitor, full curve, poor fit]
O=C(CSc1nnc(-c2ccncc2)n1-c1ccc(F)cc1)NC(=O)NCc1ccco1 89.1 µM [inhibitor, single point]
c1ccc(-c2cc3c(-n4cccc4)ncnc3o2)cc1 89.1 µM [inhibitor, single point]
Cc1cc2oc(=O)cc(-c3ccccc3)c2c(C)c1-c1ccc(C(F)(F)F)cc1 50.1 µM [inhibitor, partial curve, poor fit]
Cc1ccc(CSc2nc(-c3ccc(C(C)(C)C)cc3)nc3cc(=O)[nH]n23)cc1 89.1 µM [inhibitor, partial curve, poor fit]

Potency, inactive:
Cc1ccc([N+](=O)[O-])cc1S(=O)(=O)Nc1cccc(-c2ccc(N3CCCC3)nn2)c1
Cc1nc(SCc2nc3ccccc3[nH]2)c2oc3cc(Br)ccc3c2n1
COc1ccc(N(Cc2cccs2)C(=O)COc2ccc(C(C)C)cc2)cc1
CCN(CC)S(=O)(=O)c1ccc2c(c1)N(CC(=O)Nc1ccc(C)cc1C)C(=O)C1CCCN21 (stereo not drawn)
CNc1ccnc(-c2ccccc2C)n1
Cc1ccc(/C=N/NC(=O)c2cc3c(ccc4ccccc43)o2)o1
C#CCOCCOCCOCCNc1nc(N2CCN(C(=O)CCCCCCCCCCNC(=O)Cn3cc(CCCCCN)nn3)CC2)nc(N2CCN(C(=O)CCCCCCCCCCNC(=O)[C@H](CO)n3cc(CCCCCN)nn3)CC2)n1
CCc1ccccc1NC(=O)c1sc2nc3n(c(=O)c2c1C)CCC3
COc1ccc(Cl)cc1NC(=O)c1ncn(-c2ccccc2)n1
CCN(C(=O)c1cnc(N2CCOCC2)c2ccccc12)c1cc(C)ccc1C
COc1ccc(CCNC(=O)c2cc(S(=O)(=O)N3CCCC(C)C3)cn2C)cc1OC (stereo not drawn)
CCOC(=O)c1ccc(NC(=O)CSc2nccn2Cc2ccc(OC)cc2)cc1
CCN(CC)C(=O)COc1ccc(N(C)S(=O)(=O)c2ccc(NC(C)=O)cc2)cc1
O=S(=O)(Nc1ccc(-c2ccc(N3CCCC3)nn2)cc1)c1ccc(OC(F)(F)F)cc1
O=C1COC(c2ccccc2)C2CCCCN12 (stereo not drawn)
COc1ccccc1CNc1cc(-c2cccc(NS(C)(=O)=O)c2)ncn1
NNC(=O)/C(=C\c1ccco1)NC(=O)c1ccco1
CCOc1ccc(CC(=O)NCCc2csc(-c3ccc(Cl)cc3)n2)cc1

activity, negative = inhibition, inactive:
O=C(CC1NCCC[C@H]1O)Cn1cnc2cc(Br)c(Cl)cc2c1=O (stereo partly drawn) -2.56% [at 19.4 µM]
